From the supplement of paper PMC8728848
The list shows a part of the results.

Legend:
Assay in all cases: glycan array binding signal (z-score within array); higher = stronger binding
Settings in all cases: glycan notation: IUPAC condensed, linker removed
[1] = biological target: Fuc(a1-2)Gal6S(b1-3)GlcNAc
Method in brief: (§1)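 The Consortium for Functional Glycomics database supplied 3228 glycan arrays, of which those lacking an available protein sequence were dropped. The binding signal, a within-array Z-score, was averaged across arrays of the same protein sequence and across linkers. Negative scores can be read as non-binding.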

[2] = biological target: Fuc(a1-2)Gal6S(b1-3)GlcNAc6S
Method in brief: as §1

Fuc(a1-2)Gal6S(b1-4)Glc = biological target: Fuc(a1-2)Gal6S(b1-4)Glc
Method in brief: as §1

[3] = biological target: Fuc(a1-2)Gal6S(b1-4)Glc6S
Method in brief: as §1

Fuc(a1-2)[Gal(a1-3)]Gal = biological target: Fuc(a1-2)[Gal(a1-3)]Gal
Method in brief: as §1

[4] = biological target: Fuc(a1-2)[Gal(a1-3)]Gal(b1-3)GalNAc
Method in brief: as §1

[5] = biological target: Fuc(a1-2)[Gal(a1-3)]Gal(b1-3)GalNAc(b1-3)Gal(a1-4)Gal(b1-4)Glc
Method in brief: as §1

[6] = biological target: Fuc(a1-2)[Gal(a1-3)]Gal(b1-3)GlcNAc
Method in brief: as §1

[7] = biological target: Fuc(a1-2)[Gal(a1-3)]Gal(b1-3)GlcNAc(b1-2)Man(a1-3)[Fuc(a1-2)[Gal(a1-3)]Gal(b1-3)GlcNAc(b1-2)Man(a1-6)]Man(b1-4)GlcNAc(b1-4)GlcNAc
Method in brief: as §1

[8] = biological target: Fuc(a1-2)[Gal(a1-3)]Gal(b1-3)GlcNAc(b1-2)Man(a1-3)[Fuc(a1-2)[Gal(a1-3)]Gal(b1-3)GlcNAc(b1-2)Man(a1-6)]Man(b1-4)GlcNAc(b1-4)[Fuc(a1-6)]GlcNAc
Method in brief: as §1

[9] = biological target: Fuc(a1-2)[Gal(a1-3)]Gal(b1-3)GlcNAc(b1-3)GalNAc
Method in brief: as §1

[10] = biological target: Fuc(a1-2)[Gal(a1-3)]Gal(b1-3)GlcNAc(b1-6)GalNAc
Method in brief: as §1

[11] = biological target: Fuc(a1-2)[Gal(a1-3)]Gal(b1-4)Glc
Method in brief: as §1

[12] = biological target: Fuc(a1-2)[Gal(a1-3)]Gal(b1-4)GlcNAc
Method in brief: as §1

[13] = biological target: Fuc(a1-2)[Gal(a1-3)]Gal(b1-4)GlcNAc(b1-2)Man
Method in brief: as §1

[14] = biological target: Fuc(a1-2)[Gal(a1-3)]Gal(b1-4)GlcNAc(b1-2)Man(a1-3)[Fuc(a1-2)[Gal(a1-3)]Gal(b1-4)GlcNAc(b1-2)Man(a1-6)]Man(b1-4)GlcNAc(b1-4)GlcNAc
Method in brief: as §1

[15] = biological target: Fuc(a1-2)[Gal(a1-3)]Gal(b1-4)GlcNAc(b1-2)Man(a1-3)[Fuc(a1-2)[Gal(a1-3)]Gal(b1-4)GlcNAc(b1-2)Man(a1-6)]Man(b1-4)GlcNAc(b1-4)[Fuc(a1-6)]GlcNAc
Method in brief: as §1

[16] = biological target: Fuc(a1-2)[Gal(a1-3)]Gal(b1-4)GlcNAc(b1-3)GalNAc
Method in brief: as §1

[17] = biological target: Fuc(a1-2)[Gal(a1-3)]Gal(b1-4)GlcNAc(b1-3)[Fuc(a1-2)[Gal(a1-3)]Gal(b1-4)GlcNAc(b1-6)]GalNAc
Method in brief: as §1

[18] = biological target: Fuc(a1-2)[Gal(a1-3)]Gal(b1-4)GlcNAc(b1-6)GalNAc
Method in brief: as §1

[19] = biological target: Fuc(a1-2)[Gal(a1-3)]Gal(b1-4)[Fuc(a1-3)]Glc
Method in brief: as §1

[20] = biological target: Fuc(a1-2)[Gal(a1-3)]Gal(b1-4)[Fuc(a1-3)]GlcNAc
Method in brief: as §1

[21] = biological target: Fuc(a1-2)[Gal(a1-3)]Gal(b1-4)[Fuc(a1-3)]GlcNAc(b1-3)GalNAc
Method in brief: as §1

[22] = biological target: Fuc(a1-2)[Gal(a1-4)]Gal(b1-4)GlcNAc
Method in brief: as §1

[23] = biological target: Fuc(a1-2)[GalNAc(a1-3)]Gal
Method in brief: as §1

[24] = biological target: Fuc(a1-2)[GalNAc(a1-3)]Gal(b1-3)GalNAc(a1-3)[Fuc(a1-2)]Gal(b1-4)GlcNAc
Method in brief: as §1

[25] = biological target: Fuc(a1-2)[GalNAc(a1-3)]Gal(b1-3)GalNAc(b1-3)Gal(a1-4)Gal(b1-4)Glc
Method in brief: as §1

[26] = biological target: Fuc(a1-2)[GalNAc(a1-3)]Gal(b1-3)GlcNAc
Method in brief: as §1

[27] = biological target: Fuc(a1-2)[GalNAc(a1-3)]Gal(b1-3)GlcNAc(b1-2)Man(a1-3)[Fuc(a1-2)[GalNAc(a1-3)]Gal(b1-3)GlcNAc(b1-2)Man(a1-6)]Man(b1-4)GlcNAc(b1-4)GlcNAc
Method in brief: as §1

[28] = biological target: Fuc(a1-2)[GalNAc(a1-3)]Gal(b1-3)GlcNAc(b1-2)Man(a1-3)[Fuc(a1-2)[GalNAc(a1-3)]Gal(b1-3)GlcNAc(b1-2)Man(a1-6)]Man(b1-4)GlcNAc(b1-4)[Fuc(a1-6)]GlcNAc
Method in brief: as §1

[29] = biological target: Fuc(a1-2)[GalNAc(a1-3)]Gal(b1-3)GlcNAc(b1-3)GalNAc
Method in brief: as §1

[30] = biological target: Fuc(a1-2)[GalNAc(a1-3)]Gal(b1-3)GlcNAc(b1-6)GalNAc
Method in brief: as §1

[31] = biological target: Fuc(a1-2)[GalNAc(a1-3)]Gal(b1-4)Glc
Method in brief: as §1

[32] = biological target: Fuc(a1-2)[GalNAc(a1-3)]Gal(b1-4)GlcNAc
Method in brief: as §1

[33] = biological target: Fuc(a1-2)[GalNAc(a1-3)]Gal(b1-4)GlcNAc(b1-2)Man
Method in brief: as §1

[34] = biological target: Fuc(a1-2)[GalNAc(a1-3)]Gal(b1-4)GlcNAc(b1-2)Man(a1-3)[Fuc(a1-2)[GalNAc(a1-3)]Gal(b1-4)GlcNAc(b1-2)Man(a1-6)]Man(b1-4)GlcNAc(b1-4)GlcNAc
Method in brief: as §1

[35] = biological target: Fuc(a1-2)[GalNAc(a1-3)]Gal(b1-4)GlcNAc(b1-2)Man(a1-3)[Fuc(a1-2)[GalNAc(a1-3)]Gal(b1-4)GlcNAc(b1-2)Man(a1-6)]Man(b1-4)GlcNAc(b1-4)[Fuc(a1-6)]GlcNAc
Method in brief: as §1

[36] = biological target: Fuc(a1-2)[GalNAc(a1-3)]Gal(b1-4)GlcNAc(b1-3)Gal(b1-4)GlcNAc
Method in brief: as §1

[37] = biological target: Fuc(a1-2)[GalNAc(a1-3)]Gal(b1-4)GlcNAc(b1-3)Gal(b1-4)GlcNAc(b1-3)Gal(b1-4)GlcNAc
Method in brief: as §1

[38] = biological target: Fuc(a1-2)[GalNAc(a1-3)]Gal(b1-4)GlcNAc(b1-3)GalNAc
Method in brief: as §1

[39] = biological target: Fuc(a1-2)[GalNAc(a1-3)]Gal(b1-4)GlcNAc(b1-3)[Fuc(a1-2)[GalNAc(a1-3)]Gal(b1-4)GlcNAc(b1-6)]GalNAc
Method in brief: as §1

[40] = biological target: Fuc(a1-2)[GalNAc(a1-3)]Gal(b1-4)GlcNAc(b1-6)GalNAc
Method in brief: as §1

[41] = biological target: Fuc(a1-2)[GalNAc(a1-3)]Gal(b1-4)[Fuc(a1-3)]GlcNAc
Method in brief: as §1

[42] = biological target: Fuc(a1-2)[GalNAc(a1-3)]Gal(b1-4)[Fuc(a1-3)]GlcNAc(b1-3)GalNAc
Method in brief: as §1

[43] = biological target: Fuc(a1-2)[GalNAc(a1-4)]Gal(b1-4)GlcNAc
Method in brief: as §1

B1: Als1 (Candida albicans), P46590 (protein)
chain: KTITGVFDSFNSLTWSNAANYAFKGPGYPTWNAVLGWSLDGTSANPGDTFTLNMPCVFKYTTSQTSVDLTADGVKYATCQFYSGEEFTTFSTLTCTVNDALKSSIKAFGTVTLPIAFNVGGTGSSTDLEDSKCFTAGTNTVTFNDGDKDISIDVEFEKSTVDPSGYLYASRVMPSLNKVTTLFVAPQCENGYTSGTMGFSSSNGDVAIDCSNIHIGITKGLNDWNYPVSSESFSYTKTCTSNGIQIKYQNVPAGYRPFIDAYISATDVNQYTLAYTNDYTCAGSRLQSKPFTLRWTGYKNSDAGSNGIVIVATTRTVTDSTTAVTTLPFNPSVDKTKTIEILQPIPTTTITTSYVGVTTSYLTKTAPIGETATVIVDVPYHTTTTVTSEWTGTITTTTTRTNPTDSIDTVVVQVP
glycan array binding signal (z-score) [1]: -0.676 | glycan array binding signal (z-score) [2]: 0.403 | glycan array binding signal (z-score) (Fuc(a1-2)Gal6S(b1-4)Glc): -0.435 | glycan array binding signal (z-score) [3]: -0.25 | glycan array binding signal (z-score) (Fuc(a1-2)[Gal(a1-3)]Gal): -0.327 | glycan array binding signal (z-score) [4]: -0.53 | glycan array binding signal (z-score) [5]: -0.049 | glycan array binding signal (z-score) [6]: -0.125 | glycan array binding signal (z-score) [7]: -0.844 | glycan array binding signal (z-score) [8]: -0.335 | glycan array binding signal (z-score) [9]: -0.482 | glycan array binding signal (z-score) [10]: -0.3 | glycan array binding signal (z-score) [11]: -0.48 | glycan array binding signal (z-score) [12]: -0.644 | glycan array binding signal (z-score) [13]: -0.385 | glycan array binding signal (z-score) [14]: -0.668 | glycan array binding signal (z-score) [15]: -0.749 | glycan array binding signal (z-score) [16]: -0.678 | glycan array binding signal (z-score) [17]: -0.556 | glycan array binding signal (z-score) [18]: 1.62 | glycan array binding signal (z-score) [19]: 0.021 | glycan array binding signal (z-score) [20]: 0.286 | glycan array binding signal (z-score) [21]: 0.685 | glycan array binding signal (z-score) [22]: -0.577 | glycan array binding signal (z-score) [23]: -0.777 | glycan array binding signal (z-score) [24]: -0.496 | glycan array binding signal (z-score) [25]: -0.643 | glycan array binding signal (z-score) [26]: -0.204 | glycan array binding signal (z-score) [27]: -0.646 | glycan array binding signal (z-score) [28]: -0.413 | glycan array binding signal (z-score) [29]: 0.39 | glycan array binding signal (z-score) [30]: -0.055 | glycan array binding signal (z-score) [31]: -0.307 | glycan array binding signal (z-score) [32]: -0.357 | glycan array binding signal (z-score) [33]: -0.488 | glycan array binding signal (z-score) [34]: -0.448 | glycan array binding signal (z-score) [35]: -0.337 | glycan array binding signal (z-score) [36]: -0.31 | glycan array binding signal (z-score) [37]: 0.246 | glycan array binding signal (z-score) [38]: -0.403 | glycan array binding signal (z-score) [39]: -0.61 | glycan array binding signal (z-score) [40]: -0.172 | glycan array binding signal (z-score) [41]: 1.25 | glycan array binding signal (z-score) [42]: 2.38 | glycan array binding signal (z-score) [43]: -0.813
